# Read counts are not given, so values of variants with three or more changes are uncertain.
# B1: CPEB3 Ribozyme (parent)
# chain: UAACAGGGGGCCACAGCAGAAGCGUUCACGUCGCAGCCCCUGUCAGAUUCUGGUGAAUCUGCGAAUUCUGCUGUAUAUCUC
# Variants of: B1
# Assay: self-cleavage, relative activity (ratio to wild type); higher = more cleavage; in vitro, sequencing
# How it was run: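 Barcoded CPEB3 ribozyme mutants, produced by rounds of error-prone PCR, self-cleaved while being transcribed with T7 RNA polymerase for 5 hours at 37°C and during a subsequent 15 min DNase I step before EDTA was added. Sequencing of template-switched cDNA on Illumina gave cleaved and total reads, and DNA sequencing assigned barcodes to variants. Each variant's relative activity is its cleaved/total read fraction divided by the unmutated ribozyme's fraction, averaged across three batches. A variant needed a minimum of 5 reads.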
row,Variant,self-cleavage
1,A13U U54C A65G,0.5
2,A13U U54C A77G U78C,0.87
3,A13U U54C U58C U60A A65G,0.25
4,A13U U54C U58C U60A U67C,0.12
5,A13U U54C U60A,0.68
6,A13U U54C U60C,0.66
7,A13U U54C U67G,0.47
8,A13U U54C U69A A77G,0.89
9,A13U U54C U72A,0.58
10,A13U U54G A65G C68A U72A,0.14
11,A13U U54G U66C U67C A75U,0.13
12,A13U U58A G63A A65U,0.45
13,A13U U58A U74C,0.72
14,A13U U58C U60A,0.27
15,A13U U58C U60A U72C,0.2
16,A13U U58C U69C,0.19
17,A13U U60C U67C G73A,0.31
18,A13U U67A C71G U72C,0.27
19,A13U U67A U72C,0.53
20,A13U U67C U69A,0.2
21,A13U U69C G73A,1.05
22,A13U U72A U80C,0.93
23,A13U U72C U80A,1.01
24,A13U U74C U80C,1.27

row,Variant,self-cleavage
1,A13U U76A A77G,1.16
2,C14A A15G U25C U74C U80A,0.28
3,C14A A15G U51A,1.21
4,C14A A15G U51G U60C,0.22
5,C14A A18G A35G A45G G63C U69C,1.21
6,C14A A18U A21G A77G,0.22
7,C14A A18U A21G U25C U74C U80A,0.05
8,C14A A18U C62G U66C U67C,0.07
9,C14A A18U U48C,0.23
10,C14A A20G C27A C38U U43A,0.05
11,C14A A20U U25C G33A U41A,0.17
12,C14A A20U U26A U31C U41A A56U U60A,0.04
13,C14A A21G U72C,1.02
14,C14A A21G U80C,0.95
15,C14A A21U A35G C44G,0.41
16,C14A A28G C29U A45U G73A,0.39
17,C14A A35U U41G A77G,0.12
18,C14A A35U U67A G73A,0.29
19,C14A A57G A64G,1.03
20,C14A C17G G70A,0.74
21,C14A C23A U48C,0.17
22,C14A C23U A47U U49A U54C A64U,0.09
23,C14A C23U A64U,0.14
24,C14A C29G U41C A57G,0.15

row,Variant,self-cleavage
1,C14A U25C C29U U41C U48C A56U U67A,0.03
2,C14A U25C U48C A57G U80A,0.1
3,C14A U25C U51A A65G U80C,0.11
4,C14A U25G U43A,0.15
5,C14A U26A U51C U66C,0.44
6,C14A U26C U67C U78C,0.09
7,C14A U31C A57G,0.61
8,C14A U31C A65G,0.29
9,C14A U31C G63A U72C,0.62
10,C14A U41A U43C,0.53
11,C14A U43C A45U A64G U66C U72C,0.13
12,C14A U43C U49C G53A A56G U66C U69C,0.09
13,C14A U43C U69C U74C,0.22
14,C14A U49C A57U,0.34
15,C14A U51A U72C U78A,1.31
16,C14A U51C U58C U66C U72G,0.16
17,C14A U51G G61A,0.32
18,C14A U54C A65G,0.36
19,C14A U54C U76C,1.08
20,C14A U60C U69A,0.23
21,C14A U69C U74C,0.65
22,C14G A20C A65G U76C,0.06
23,C14G A20G A45G,0.32
24,C14G A20G A45U,0.35

row,Variant,self-cleavage
1,C14G A20G A47G A57G U60C A64U,0.03
2,C14G A21G G33A A35U U72G,0.12
3,C14G A21G G42U U51C U60A,0.14
4,C14G A21U U51A,0.31
5,C14G A28U U31C A65U U69C,0.05
6,C14G A56C U78C,0.83
7,C14G C17G A35G U41C,0.69
8,C14G C23U U69A A77G,0.04
9,C14G G16U A64G U67C,0.04
10,C14G G33A U43A U60C G63U,0.12
11,C14G G42U U72C,0.35
12,C14G U25C A64G,0.36
13,C14G U25C U26C U60C U67A,0.16
14,C14G U31A C38U A75U A77U,0.28
15,C14G U31A U60C A65G,0.13
16,C14G U43C A64U U72C U78C,0.08
17,C14G U49C A65C,0.07
18,C14G U51A A57U A65U,0.08
19,C14U A15C U72A,0.91
20,C14U A15G A20C C23A U54G U58C,0.04
21,C14U A15G U60C,0.41
22,C14U A15G U66G,0.51
23,C14U A15U A35G G46U A77C,0.42
24,C14U A15U C32U U54A U67C,0.13

row,Variant,self-cleavage
1,C14U A15U U43C U51C U74C,0.67
2,C14U A15U U43C U74C,0.58
3,C14U A18C A35G,0.74
4,C14U A18C U41C G55A U69C,0.12
5,C14U A18G A21G U31C U43C,0.04
6,C14U A18G A28G U69C U80C,0.82
7,C14U A18G G24A U26C G33A U51C C79A,0.05
8,C14U A18G U25A U26C,0.07
9,C14U A18G U31C A64G,0.12
10,C14U A18G U54A A56U,0.28
11,C14U A18G U60C,0.3
12,C14U A18U A20G U26C G55A A75G,0.21
13,C14U A18U C79A,0.71
14,C14U A18U U49A,0.32
15,C14U A20G A21G U25A G46U A56U U67C,0.06
16,C14U A20G A28G U43A U49C U67A,0.04
17,C14U A20G A35G,1.15
18,C14U A20G U25C A56U,0.07
19,C14U A20G U26A U54A,0.54
20,C14U A20G U41A U72A,0.16
21,C14U A20G U67C,1.09
22,C14U A20U A35G U49C A56G U69C,0.18
23,C14U A20U A47G A56G,0.49
24,C14U A20U C38G C40A A57G U58C,0.04

row,Variant,self-cleavage
1,C14U A20U G22C U54G,0.09
2,C14U A20U U43C A64G U67C,0.07
3,C14U A21G A47U,0.62
4,C14U A21G A77G,0.97
5,C14U A21G G24A C50A U54A U58C A64C,0.05
6,C14U A21G U41A U60A,0.09
7,C14U A21U C32U G55U A77U,0.05
8,C14U A21U G33U U69C A75G,0.04
9,C14U A28C C32G U54C,0.03
10,C14U A28G A57G U66C,0.13
11,C14U A28G A64G,0.57
12,C14U A28G C39A U41C U49C U58A U67C,0.14
13,C14U A35G A65U,1.14
14,C14U A35G U43C C62A C79A,0.72
15,C14U A35U U41C U58A,0.18
16,C14U A45G G46A U67C U69C,0.16
17,C14U A45U A56G U69C,0.11
18,C14U A45U U66A,0.18
19,C14U A47G U49A A65G,0.13
20,C14U A56U U60A U74C,0.24
21,C14U A57G U72C,1.16
22,C14U A57G U80C,1.23
23,C14U A64U A65U C68A,0.23
24,C14U A75G U80C,1.23

row,Variant,self-cleavage
1,C14U C17U U31C A35U,0.09
2,C14U C23A A45U A56G,0.08
3,C14U C23U G46U U48C U60C U67A A75G,0.05
4,C14U C27A U67C,0.1
5,C14U C29U U41C U54C A64G,0.26
6,C14U C32U U43C,0.15
7,C14U C34A C50U,0.29
8,C14U C34U A56G G73A A75U,0.61
9,C14U C34U U48C U54C A57G G61A,0.23
10,C14U C38G C40A G42A G53A A57G U58C,0.11
11,C14U C39A U41C U58A U74C,0.15
12,C14U C39A U54C U60G U80C,0.11
13,C14U C40U C44U U78C,0.06
14,C14U C44U A57G,0.18
15,C14U G16C A56G U72C U78C,0.29
16,C14U G16U G36C U43G U51C U60C,0.13
17,C14U G19A U41C,0.2
18,C14U G19C U51A U78A U80C,0.12
19,C14U G19C U78A,0.37
20,C14U G24A C38U U41C U60C,0.14
21,C14U G33A A57G,0.35
22,C14U G42U A57G,0.21
23,C14U U25A U74G C81U,0.04
